Assay results as given in the supplement of paper PMC4967469.
The IC50 comes from the fitted curve, where viability falls to half of the control; a limit (>, <) means that the fit lies beyond the doses tested. AUC is the area under the same curve over the 256-fold range up to the top dose, as a fraction; values near 1 show little effect. For some of these results: A top dose marked as inferred is not printed in the source and was worked back from the curve model. For some of these results: An entry number marks a drug with two screens in the source, which often give different values.

What was measured:
Test in all cases: Viability of human cancer cell lines after 72 h of drug (GDSC screen)
PHA-793887 = compound: CC(C)CC(=O)Nc1n[nH]c2c1CN(C(=O)C1CCN(C)CC1)C2(C)C [PHA-793887]; settings: top dose 10.24 µM
Procedure: (§1)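 Human cancer cell lines in 384-well plates, medium with 10% serum, drug for 72 h over a 256-fold dose range (nine 2-fold or five 4-fold steps up to the top dose). Adherent lines were fixed and stained with the nucleic acid dye Syto60, suspension lines read with resazurin; signal relative to control wells, capped at 0 and 100%. One two-parameter sigmoid per drug and line, fitted in a mixed model over all curves with the slope shared within a line.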

Epothilone B = compound: C/C(=C\c1csc(C)n1)[C@@H]1C[C@@H]2O[C@]2(C)CCC[C@H](C)[C@H](O)[C@@H](C)C(=O)C(C)(C)[C@@H](O)CC(=O)O1 [Epothilone B]; settings: top dose 0.032 µM; top dose inferred
Procedure: as §1

Y-39983 = compound: C[C@@H](N)c1ccc(C(=O)Nc2ccnc3[nH]ccc23)cc1 [Y-39983]; settings: top dose 20 µM; top dose inferred
Procedure: as §1

PLX4720 = compound: CCCS(=O)(=O)Nc1ccc(F)c(C(=O)c2c[nH]c3ncc(Cl)cc23)c1F [PLX4720]; settings: top dose 10 µM
Procedure: as §1

TPCA-1 = compound: NC(=O)Nc1sc(-c2ccc(F)cc2)cc1C(N)=O [TPCA-1]; settings: top dose 20 µM
Procedure: as §1

[1] = screen: GDSC drug entry 1371, top dose inferred

Row | Cell Line | AUC (PHA-793887) | IC50 (PHA-793887) | AUC (Epothilone B) | IC50 (Epothilone B) | AUC (Y-39983) | IC50 (Y-39983) | AUC (PLX4720; screen: GDSC drug entry 1036) | IC50 (PLX4720; screen: GDSC drug entry 1036) | AUC (PLX4720; [1]) | IC50 (PLX4720; [1]) | AUC (TPCA-1) | IC50 (TPCA-1)
1 | ECC10 (stomach, suspension) | 0.765 | 3.91 µM | 0.64 | 0.00498 µM | 0.942 | > 20 µM | 0.89 | > 10 µM | 0.947 | > 10 µM | 0.839 | 14.6 µM
2 | EFM-19 (breast, adherent) | 0.962 | > 10.2 µM | 0.652 | 0.00657 µM | 0.915 | > 20 µM |  |  | 0.974 | > 10 µM | 0.808 | 17.7 µM
3 | EFM-192A (breast, adherent) | 0.984 | > 10.2 µM | 0.566 | 0.00309 µM | 0.981 | > 20 µM | 0.974 | > 10 µM | 0.983 | > 10 µM | 0.939 | > 20 µM
4 | EFO-21 (ovary, adherent) | 0.905 | > 10.2 µM | 0.694 | 0.009 µM | 0.979 | > 20 µM | 0.98 | > 10 µM | 0.977 | > 10 µM | 0.811 | 17 µM
5 | EFO-27 (ovary, adherent) | 0.824 | 8.21 µM | 0.479 | 0.00173 µM | 0.888 | > 20 µM | 0.957 | > 10 µM | 0.944 | > 10 µM | 0.83 | 17.2 µM
6 | EGI-1 (biliary tract, adherent) | 0.901 | > 10.2 µM | 0.834 | 0.0302 µM | 0.978 | > 20 µM | 0.876 | > 10 µM | 0.977 | > 10 µM | 0.86 | > 20 µM
7 | EN (endometrium, adherent) | 0.821 | 8.11 µM | 0.76 | 0.0142 µM | 0.91 | > 20 µM | 0.961 | > 10 µM | 0.982 | > 10 µM | 0.891 | > 20 µM
8 | EPLC-272H (lung squamous cell carcinoma, adherent) | 0.493 | 0.611 µM | 0.439 | 0.00134 µM | 0.868 | > 20 µM |  |  | 0.975 | > 10 µM | 0.776 | 9 µM
9 | ESS-1 (endometrium, adherent) | 0.943 | > 10.2 µM | 0.481 | 0.00179 µM | 0.981 | > 20 µM | 0.99 | > 10 µM | 0.989 | > 10 µM | 0.986 | > 20 µM
10 | EW-7 (Ewing sarcoma, semi-adherent) | 0.687 | 1.99 µM | 0.416 | 0.00121 µM | 0.708 | 4.44 µM | 0.953 | > 10 µM | 0.98 | > 10 µM | 0.55 | 1.68 µM
11 | FADU (head and neck, adherent) | 0.934 | > 10.2 µM | 0.798 | 0.0146 µM | 0.982 | > 20 µM | 0.981 | > 10 µM | 0.984 | > 10 µM | 0.923 | > 20 µM
12 | FTC-133 (thyroid, adherent) | 0.984 | > 10.2 µM | 0.825 | 0.0219 µM | 0.975 | > 20 µM | 0.968 | > 10 µM | 0.851 | 8.88 µM | 0.986 | > 20 µM
13 | FU97 (stomach, adherent) | 0.899 | > 10.2 µM | 0.956 | > 0.032 µM | 0.976 | > 20 µM | 0.957 | > 10 µM | 0.973 | > 10 µM | 0.89 | > 20 µM
14 | FU-OV-1 (ovary, adherent) | 0.854 | > 10.2 µM | 0.888 | > 0.032 µM | 0.958 | > 20 µM | 0.982 | > 10 µM | 0.924 | > 10 µM | 0.857 | > 20 µM
15 | G-292 Clone A141B1 (osteosarcoma, adherent) | 0.92 | > 10.2 µM | 0.93 | > 0.032 µM | 0.926 | > 20 µM | 0.956 | > 10 µM | 0.935 | > 10 µM | 0.921 | > 20 µM
16 | G-361 (melanoma, adherent) | 0.98 | > 10.2 µM | 0.42 | 0.00122 µM | 0.983 | > 20 µM | 0.749 | 3.13 µM | 0.775 | 3.8 µM | 0.832 | 12 µM
17 | G-401 (kidney, adherent) | 0.825 | 6.98 µM | 0.494 | 0.00192 µM | 0.929 | > 20 µM | 0.984 | > 10 µM | 0.937 | > 10 µM | 0.79 | 9.85 µM
18 | G-402 (soft tissue, adherent) | 0.79 | 6.31 µM | 0.636 | 0.00541 µM | 0.931 | > 20 µM | 0.921 | > 10 µM | 0.951 | > 10 µM | 0.875 | > 20 µM
19 | G-MEL (melanoma, adherent) | 0.892 | > 10.2 µM | 0.917 | > 0.032 µM | 0.976 | > 20 µM |  |  | 0.406 | 0.347 µM | 0.848 | 14.6 µM
20 | GAMG (glioma, adherent) | 0.655 | 1.77 µM | 0.471 | 0.00166 µM | 0.91 | > 20 µM | 0.9 | > 10 µM | 0.98 | > 10 µM | 0.844 | 15.3 µM
21 | GCT (soft tissue, adherent) | 0.967 | > 10.2 µM | 0.68 | 0.00612 µM | 0.981 | > 20 µM |  |  | 0.988 | > 10 µM | 0.969 | > 20 µM
